Laboratory results reported in the supplement of paper PMC11417369.
± gives the standard deviation of the averaged measurements. The list shows a part of the results.

test system: PfAP2-EXP AP2 domain (GST-tagged); assay: gcPBM binding intensity (ln(normalized median fluorescence intensity)); higher = stronger DNA binding
Summary of the method: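 The binding buffer was 1× PBS containing 1% milk, 0.2 mg/ml BSA, 0.5% salmon testes DNA and 0.03% Triton X-100. In it, GST-tagged P. falciparum DNA-binding domains expressed in E. coli were applied for 1 h to an Agilent 4 × 180k array of primer-extended double-stranded 36-bp intergenic genomic probes plus negative controls. Binding intensity, read with Alexa488 anti-GST antibody and a 488 nm scan, is the highest Masliner-normalised natural-log median intensity across replicate spots of either probe orientation.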

Sequence	gcPBM binding intensity (ln)
AAGGTCATTTTATATTGTACATGAAATTGTTATGTA [XGTACX_site187]	8.37 ± 0.4
ATATACAGATAAATGTGTACTTAAATCTATTATATT [XGTACX_site2632]	8.18 ± 0.28
AATAATGAATACACATGTACAAAAATTTTTCTTACT [XGTACX_site1962]	8.61 ± 0.33
TATTACAAATATGGCACACATATATATATATATATT [CACACA_site3268]	8.49 ± 0.26
TCAATTTGGAACGGTATGCACTAATTTTATATTTTT	8.41 ± 0.27
ATATATTTTGTATGTAGTACAATTTTATAATCATAT [XGTACX_site8373]	8.12 ± 0.12
ACAAAGACAATTTTGTTATATATAAAAAAAAAAAAT [CACACA_negctrl_site253]	8.51 ± 0.57
TATATAAAACCTTATTGTACTATTAGACTATGCTTA [XGTACX_site6026]	8.21 ± 0.39
CAAATATCTATTTAGTGTACTAATATATTCAATAAT [XGTACX_site2345]	8.41 ± 0.18
TACAAATATATATGCACACACATATCTGTATATGTG [CACACA_site5663]	8.59 ± 0.24
ATAGCATATATTTTTTGTACATATGTTATATATATA [XGTACX_site2184]	8.96 ± 0.071
ATTAATTTTCCATTCACACATATATATATATATATA [CACACA_site6065]	10.1 ± 0.55
ATGTAGATATATATCTGTACGTATATGTAAATATTA [XGTACX_site1516]	8.72 ± 0.35
ACACATTATAACAAGGTGCAATTTTTATACACATGT [GTGCAC_site9866]	8.61 ± 0.15
AATTCTTTTTATATATTAAATATTATTAATAAGTCA [CACACA_negctrl_site1488]	8.21 ± 0.4
GCTATAATAAAATTTAAACACACGTAATATAATATA [CACACA_site2592]	8.59 ± 0.49
AAAATTTCATAAAGACGTACTATAAAAATAAAATTA [XGTACX_site4182]	8.59 ± 0.4
GAAAAAAAAAAAAATACACACAAATTGGTATATAAC [CACACA_site6315]	8.38 ± 0.58
CACTAATAGTGGATTACACACATATAGATGTATATA [CACACA_site7234]	8.34 ± 0.35
TATAAAAAATATCCTTTTTTTATACATCAATATATA [TGCATGCA_negctrl_site291]	8.02 ± 0.35
GTATATTTCTTTAAATGTACACATTTTTTTAAAGAG [XGTACX_site1225]	8.53 ± 0.35
AATTGTATAAATGGAATAATGACTATGATTATACAT [GTGCAC_negctrl_site188]	8.63 ± 0.39
AAAAATTCTTGGCGCACACACTTTAAAAGTTAAAAA [CACACA_site6430]	8.79 ± 0.4
ACCATATAAAGTTAGGTGCATTTGTATGTATCTTAC	8.55 ± 0.26
TTATTTTGATCTGGTTGTACATATAATATATAGTGG [XGTACX_site357]	8.91 ± 0.48
